Reference: PubChem BioAssay AID2100 (National Center for Advancing Translational Sciences (NCATS), 2009)
In all, about 300,000 compounds went through this assay and about 1,200 (0.4%) were called active. Inconclusive means that the source gave no clear call. Such entries were picked first, then a sample of the others. The call rests on the fitted dose curve; in most records, active means well fitted inhibition curve with a large enough effect; inconclusive means small, poorly fitted or top-dose-only effect, or another doubt; inactive means no such curve, though single readings can be large or run the other way. A potency beside an inconclusive call is a rough fit, not a confirmed value.

Molecular target: Lysosomal alpha-glucosidase (Homo sapiens) (UniProt P10253)
Experiment: qHTS Assay for Inhibitors and Activators of Human alpha-Glucosidase Cleavage of Glycogen;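 on activity change, negative = inhibition: 0% = full enzyme reaction and -100% = no-enzyme basal signal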
Conditions: recombinant GAA, glycogen substrate, Amplex Red glucose oxidase fluorescence; activity change, negative = inhibition: at 76.4 µM (top of the series) unless noted
In short: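 Natural-substrate format: glycogen cleavage by 4 nM human enzyme, glucose read by Amplex Red coupling (Ex 573, Em 610 nm). Normalized to enzyme and no-enzyme controls.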
Potency means the concentration at half of the fitted maximal effect.

SMILES | Potency | activity change, negative = inhibition
CC1=NNC(=O)C1CC(=O)N/N=C/C(C)=C/c1ccccc1 (stereo not drawn) | inconclusive: 3.98 µM [inhibitor, full curve, poor fit] | –
Cc1ccc(-n2c(COc3cccc(C)c3)n[nH]c2=S)cc1 | inconclusive: 56.2 µM [inhibitor, partial curve] | –
CC(C)Oc1ccc(CNC(=O)c2ccc(CS(=O)Cc3ccccc3Cl)o2)cc1 (stereo not drawn) | inconclusive: 8.91 µM [inhibitor, full curve] | –
O=C(CSc1nc(Nc2ccccc2)nc(N2CCOCC2)n1)Nc1cc(Cl)ccc1O | inconclusive: 11.2 µM [inhibitor, partial curve] | –
O=C(NCc1ccccn1)C(=O)NCc1ccccn1 | – | inactive: 9.49%
C/C(=N/NC(=O)c1ccccn1)c1ccc(O)cc1 | inconclusive: 15.8 µM [inhibitor, partial curve] | –
Cc1c(N/C=C/C(=O)c2cccs2)c(=O)n(-c2ccccc2)n1C | inconclusive: 22.4 µM [inhibitor, partial curve] | –
CC(C)CC(=O)NC(=S)Nc1nc(-c2ccccc2)cs1 | – | inactive: 5.85%
CC1=NN(Cc2ccccc2)C(=O)C1 | inconclusive: 39.5 µM [inhibitor, single point] | –
COc1ccc(/C=N/c2oc(-c3ccccc3)cc2C#N)cc1 | inconclusive: 31.6 µM [inhibitor, single point] | –
COC(=O)c1cc(NC(=O)[C@H](CCS(C)(=O)=O)N2Cc3ccccc3C2=O)cc(C(=O)OC)c1 | inconclusive: 11.2 µM [inhibitor, single point] | –
Cc1cc(N2CCN(C)CC2)nc2ccc(NC(=S)N3CCC4(CC3)OCCO4)cc12 | inconclusive: 14.1 µM [inhibitor, partial curve] | –
COc1cc(OC)c(OC)cc1/C=N/NC(=O)CC1C(=O)NN=C1C (stereo not drawn) | inconclusive: 19.8 µM [inhibitor, partial curve] | –
Oc1ccc(O)c(/C(=N/Nc2ccccc2)c2ccccc2)c1 | inconclusive: 3.55 µM [inhibitor, partial curve] | –
COc1ccc(NCC(=O)Nc2ccccc2C#N)cc1Cl | inconclusive: 28.2 µM [activator, partial curve] | –
Cc1ccc(-c2nc3cc(NC(=O)C(C)C)ccc3o2)cc1 | inconclusive: 8.91 µM [inhibitor, single point] | –
O=S(=O)(Nc1cccc2cccnc12)c1ccccc1 | – | inactive: 1.36%
N#Cc1c(-n2ncnc2-c2ccc(Br)cc2)sc2c1CCCCC2 | inconclusive: 44.7 µM [inhibitor, partial curve] | –
CCN(CC)c1ccc(/C=N/N2CCN(Cc3ccc(Cl)cc3)CC2)c(O)c1 | inconclusive: 7.03 µM [inhibitor, single point] | –
COc1ccc(NCc2nc3ccccc3n2CCOc2ccccc2)cc1 | inconclusive: 35.5 µM [inhibitor, partial curve] | –
NNC(=O)c1cc(-c2ccccc2)sc1N | active: 5.01 µM | –
COc1ccc(NC(=O)c2c(C(F)(F)F)nn(C)c2SCc2ccccc2)cc1 | inconclusive: 50.1 µM [inhibitor, single point] | –
Cc1cc(O)c(NC(=O)c2ccc(Br)o2)cc1C | inconclusive: 5.62 µM [inhibitor, full curve] | –

SMILES | Potency | activity change, negative = inhibition
O=C(C(Cc1ccccc1)NS(=O)(=O)c1cccc2cccnc12)N1CCc2ccccc21 (stereo not drawn) | inconclusive: 14.1 µM [inhibitor, partial curve, poor fit] | –
COC(=O)c1ccc(NC(=O)CSC2=Nc3ccccc3C3CC=NN23)cc1 (stereo not drawn) | inconclusive: 24.9 µM [activator, single point] | –
Cc1ccc(Cl)cc1N1CCN(Cc2nnnn2Cc2ccco2)CC1 | – | inactive: -2.29%
S=c1[nH]nc(-c2cccc(Cl)c2)n1Cc1ccccc1 | inconclusive: 25.1 µM [inhibitor, partial curve] | –
CC(C)c1cc(-c2n[nH]c(=S)n2Cc2ccccc2)cs1 | inconclusive: 28.2 µM [inhibitor, single point] | –
CNC(=S)NNS(=O)(=O)c1ccc(OC)cc1OC | inconclusive: 31.6 µM [inhibitor, partial curve] | –
CCCCNC(=O)CC(C(=O)N1CCc2ccccc21)n1ccnc1 (stereo not drawn) | – | inactive: 1.26%
O=C(N/N=C/c1ccc2c(c1)OCO2)c1ccccn1 | inconclusive: 35.5 µM [inhibitor, single point] | –
O=C(NCc1ccc(Cl)cc1)c1ccc(NC(=O)N2CC3CCCN3c3ccccc32)cc1 (stereo not drawn) | inconclusive: 22.4 µM [inhibitor, single point] | –
O=C(NCCCl)NNC(=O)c1cc2ccccc2cc1O | inconclusive: 17.8 µM [inhibitor, partial curve] | –
O=C(CSc1nc2ccsc2c(=O)n1NC(=O)c1ccccc1)NCc1ccco1 | inconclusive: 6.31 µM [inhibitor, partial curve] | –
COCCNc1oc(/C=C/c2ccccc2)nc1C#N | inconclusive: 28.2 µM [inhibitor, partial curve] | –
O=C(NNc1cc(N2CCCC2)nc(N2CCCC2)n1)c1ccc([N+](=O)[O-])cc1 | inconclusive: 11.1 µM [inhibitor, partial curve] | –
CCOCCCNC(=O)c1[nH]c(C)c(C(C)=O)c1C | inconclusive: 20 µM [inhibitor, partial curve] | –
O=C(CN1CCN(c2ccccc2O)CC1)NCCCc1ccccc1 | inconclusive: 3.16 µM [inhibitor, full curve] | –
COc1cc(/C=N/Nc2nc3ccccc3o2)cc(OC)c1O | inconclusive: 31.6 µM [inhibitor, partial curve] | –
NNc1nc(Nc2ccccc2)nc(N2CCCCC2)n1 | inconclusive: 39.8 µM [inhibitor, partial curve] | –
O=C(O)c1ccc(N/N=C/C=C/c2ccccc2[N+](=O)[O-])cc1 | inconclusive: 35.5 µM [inhibitor, partial curve] | –
O=C(CN1CC(=O)Oc2ccccc21)OCC(=O)c1ccc(F)cc1 | inconclusive: 4.47 µM [inhibitor, full curve] | –
O=c1[nH]n(-c2ccccn2)c(=O)c2ccccc12 | inconclusive: 44.7 µM [inhibitor, partial curve] | –
Cc1ccc(OCc2ccc(-c3nc(C#N)c(N4CCN(c5cccc(Cl)c5)CC4)o3)o2)cc1 | – | inactive: -3.14% [at 76.3 µM]
O=C(Cc1ccc([N+](=O)[O-])cc1)c1c(O)cc(O)cc1O | inconclusive: 35.5 µM [inhibitor, single point] | –
CCOc1ccccc1Nc1nc2ccccc2n1C(C)C | inconclusive: 50.1 µM [inhibitor, single point] | –

SMILES | Potency | activity change, negative = inhibition
COc1cccc(-n2c(-c3ccco3)nc3c(cnn3-c3ccccc3C)c2=O)c1 | – | inactive: -12.4% [at 76.3 µM]
O=[N+]([O-])c1ccc(Nc2ccccc2O)c2nonc12 | inconclusive: 35.5 µM [inhibitor, partial curve] | –
CC(=O)Nc1ccccc1OCc1cc(=O)n2c(C)csc2n1 | – | inactive: 11% [at 76.3 µM]
CC/C(=N\NC(=S)NC(C)C)c1ccc(OC)c(OC)c1 | inconclusive: 31.6 µM [inhibitor, single point] | –
COc1cc(/C=N\NC(=O)c2ccc(Cn3nc([N+](=O)[O-])c(Cl)c3C)o2)ccc1O | inconclusive: 25.1 µM [inhibitor, partial curve] | –
CCCC(=O)Nc1ccc(C(=O)NNC(=S)NC(=O)c2ccc(Br)o2)cc1 | inconclusive: 44.7 µM [inhibitor, partial curve] | –
CCNC(=S)Nc1ccc(N2CCCCC2)cc1 | inconclusive: 28.2 µM [inhibitor, partial curve] | –
Cc1cc(C(=O)NN)c2cc(Br)ccc2n1 | inconclusive: 22.2 µM [inhibitor, single point] | –
C=CCNC(=S)N1CCC(C(=O)c2ccc(OC)cc2)CC1 | inconclusive: 3.55 µM [inhibitor, full curve, poor fit] | –
Cc1ccccc1OCC(=O)NCC(c1ccc(Cl)cc1)N1CCOCC1 (stereo not drawn) | – | inactive: -5.72% [at 76.3 µM]
Cc1cc(C)c2ccc(N)nc2c1O | inconclusive: 39.8 µM [inhibitor, partial curve] | –
CC1CN(C(=O)N[C@@H](Cc2ccccc2)C(=O)O)CC(C)O1 (stereo partly drawn) | – | inactive: 7.78%
COc1ccc(/C=N/Nc2nccnc2Cl)cc1 | inconclusive: 22.2 µM [inhibitor, partial curve] | –
COc1cc(C2C(C#N)=C(C)NC3=C2C(=O)c2ccccc23)cc(OC)c1OC (stereo not drawn) | inconclusive: 28.2 µM [activator, single point] | –
Nc1ccc(N(CCO)CCO)cc1 | inconclusive: 31.6 µM [inhibitor, partial curve] | –
O=C(CN1CCN(c2ccccc2O)CC1)Nc1cc([N+](=O)[O-])ccc1Cl | inconclusive: 25.1 µM [inhibitor, partial curve] | –
COc1cc(/C=N/Nc2ccc(Cl)c(C(=O)O)c2)ccc1OC(=O)c1cccs1 | inconclusive: 22.4 µM [inhibitor, partial curve] | –
c1ccc2c(c1)Nc1cc3ccccc3cc1S2 | inconclusive: 28.2 µM [inhibitor, partial curve] | –
CCOC(=O)c1ccc(NC(=O)CSc2cc(-c3ccccc3)nc(C)n2)cc1 | – | inactive: 11.9% [at 76.3 µM]
COc1cc(C(=O)Nc2ccccc2OCc2cc(=O)n3c(C)csc3n2)cc(OC)c1OC | inconclusive: 11.2 µM [inhibitor, partial curve] | –
O=C(Cn1c(CO)nc2ccccc21)NCCc1ccc(F)cc1 | inconclusive: 8.84 µM [inhibitor, single point] | –
O=C(NNC(=O)c1sccc1-n1cccc1)Nc1ccccc1 | active: 12.6 µM | –
